To fix the notation:
B1: TEV protease; numbered along this chain (parent)
chain: MGESLFKGPRDYNPISSSICHLTNESDGHTTSLYGIGFGPFIITNKHLFRRNNGTLVVQSLHGVFKVKDTTTLQQHLVDGRDMIIIRMPKDFPPFPQKLKFREPQREERICLVTTNFQTKSMSSMVSDTSCTFPSGDGIFWKHWIQTKDGQCGSPLVSTRDGFIVGIHSASNFTNTNNYFTSVPKNFMELLTNQEAQQWVSGWRLNADSVLWGGHKVFMVKPEEPFQPVKEATQL

This assay covers variants of B1. The experiment in a line: raw area under fraction-flipped curve 0-4 h after induction (AUC4h, not background-subtracted), DNA-recorder readout of cleavage of the substrate (dimensionless); higher = more cleavage of the substrate by the protease variant. The conditions noted are these: temperature: 34 °C; time window: 0-4 h after rhamnose induction. As to the method: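 In vivo DNA recorder in E. coli TOP10(DE3) ΔrhaA at 34 °C. Each TEVp single-site mutant (parent TEVp 0) is paired with a single-site variant of the 7-mer TEVs (canonical ENLYFQ|S). The substrate sits between flexible linkers in a Bxb1-sfGFP-TEVs-SsrA fusion, so cleavage stabilises Bxb1 and speeds flipping of a recombination array, read by NGS. The value is the raw area under the fraction-flipped curve over 0-4 h after rhamnose induction (AUC4h), with ≥20 reads per time point. It is not background-subtracted; inactive controls average about 0.047.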

Some of the results follow. Sequences were assembled here from the parent chain. Inactive controls read about 0.05.
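Note: Bxb1 expression induced with 0.2% (w/v) L-rhamnose at OD600 near 0.5, cultures sampled hourly, flipped fraction per protease–substrate barcode pair counted by paired-end Illumina sequencing.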

With MGESLFKGPRDYNPISSSICHLTNESDGHTTSLYGIGFGPFIITNKHLFRRNNGTLVVQSLHGVFKVKDTTTLQQHLVDGRDMIIIRMPKDFPPFPQKLKFREPQREERICLVTTNFQTKSMWSMVSDTSCTFPSGDGIFWKHWIQTKDGQCGSPLVSTRDGFIVGIHSASNFTNTNNYFTSVPKNFMELLTNQEAQQWVSGWRLNADSVLWGGHKVFMVKPEEPFQPVKEATQL [S123W], the “area with substrate ENAYFQS” value is 0.0611, the “area with substrate ENCYFQS” value stood at 0.0657, the “area with substrate ENDYFQS” value was 0.0604 and the “area with substrate ENEYFQS” value was 0.0535. Besides, the “area with substrate ENFYFQS” value turned out to be 0.0583, the “area with substrate ENGYFQS” value was 0.0435, the “area with substrate ENHYFQS” value is 0.0563 and the “area with substrate ENIYFQS” value turned out to be 0.0896. The “area with substrate ENKYFQS” value came to 0.0571, the “area with substrate ENMYFQS” value amounted to 0.1, the “area with substrate ENNYFQS” value amounted to 0.0547 and the “area with substrate ENPYFQS” value is 0.0561. For the same variant, the “area with substrate ENQYFQS” value came out at 0.0595, the “area with substrate ENRYFQS” value turned out to be 0.0551, the “area with substrate ENSYFQS” value stood at 0.0571 and the “area with substrate ENTYFQS” value was 0.0697. For the same variant, the “area with substrate ENVYFQS” value was 0.0834, the “area with substrate ENWYFQS” value was 0.0533 and the “area with substrate ENYYFQS” value came out at 0.0581.

For MGESLFKGPRDYNPISSSICHLTNESDGHTTSLYGIGFGPFIITNKHLFRRNNGTLVVQSLHGVFKVKDTTTLQQHLVDGRDMIIIRMPKDFPPFPQKLKFREPQREERICLVTTNFQTKSMSSMVSQTSCTFPSGDGIFWKHWIQTKDGQCGSPLVSTRDGFIVGIHSASNFTNTNNYFTSVPKNFMELLTNQEAQQWVSGWRLNADSVLWGGHKVFMVKPEEPFQPVKEATQL [D128Q], the “area with substrate ENAYFQS” value amounted to 0.0501, the “area with substrate ENCYFQS” value stood at 0.074, the “area with substrate ENDYFQS” value was found to be 0.0639 and the “area with substrate ENFYFQS” value amounted to 0.0587. Besides, the “area with substrate ENGYFQS” value is 0.0502, the “area with substrate ENHYFQS” value was 0.0682, the “area with substrate ENIYFQS” value was found to be 0.137 and the “area with substrate ENKYFQS” value is 0.0648. Moreover, the “area with substrate ENMYFQS” value amounted to 0.0991, the “area with substrate ENNYFQS” value turned out to be 0.0525, the “area with substrate ENPYFQS” value stood at 0.0577 and the “area with substrate ENQYFQS” value was determined as 0.0654. Besides, the “area with substrate ENRYFQS” value amounted to 0.0361, the “area with substrate ENSYFQS” value came to 0.0599, the “area with substrate ENVYFQS” value amounted to 0.102 and the “area with substrate ENWYFQS” value is 0.053. Also, the “area with substrate ENYYFQS” value was 0.0529.

As for MGESLFKGPRDYNPISSSICHLTNESDGHTTSLYGIGFGPFIITNKHLFRRNNGTLVVQSLHGVFKVKDTTTLQQHLVDGRDMIIIRMPKDFPPFPQKLKFREPQREERICLVTTNFQTKSMSSMTSDTSCTFPSGDGIFWKHWIQTKDGQCGSPLVSTRDGFIVGIHSASNFTNTNNYFTSVPKNFMELLTNQEAQQWVSGWRLNADSVLWGGHKVFMVKPEEPFQPVKEATQL [V126T], the “area with substrate ENAYFQS” value was 0.0696, the “area with substrate ENCYFQS” value is 0.0706, the “area with substrate ENDYFQS” value is 0.0781 and the “area with substrate ENKYFQS” value came out at 0.0779. Also, the “area with substrate ENQYFQS” value came to 0.0643, the “area with substrate ENSYFQS” value worked out at 0.0604, the “area with substrate ENTYFQS” value was found to be 0.0673 and the “area with substrate ENVYFQS” value amounted to 0.0841. Further, the “area with substrate ENWYFQS” value stood at 0.0348.

Take MGESLFKGPRDYNPISSSICHLTNESDGHTTSLYGIGFGPFIITNKHLFRRNNGTLVVQSLHGVFKVKDTTTLQQHLVDGRDMIIIRMPKDFPPFPQKLKFREPQREERICLVTTNFQTKSMSSMVTDTSCTFPSGDGIFWKHWIQTKDGQCGSPLVSTRDGFIVGIHSASNFTNTNNYFTSVPKNFMELLTNQEAQQWVSGWRLNADSVLWGGHKVFMVKPEEPFQPVKEATQL [S127T]: the “area with substrate ENAYFQS” value turned out to be 0.0681, the “area with substrate ENDYFQS” value turned out to be 0.0514, the “area with substrate ENEYFQS” value was determined as 0.0574 and the “area with substrate ENGYFQS” value was 0.0603. For the same variant, the “area with substrate ENHYFQS” value stood at 0.0301, the “area with substrate ENIYFQS” value came to 0.102, the “area with substrate ENKYFQS” value turned out to be 0.0629 and the “area with substrate ENMYFQS” value is 0.0975. In addition, the “area with substrate ENNYFQS” value is 0.0539, the “area with substrate ENQYFQS” value came to 0.0562, the “area with substrate ENRYFQS” value came to 0.0619 and the “area with substrate ENSYFQS” value was 0.0716. For the same variant, the “area with substrate ENTYFQS” value worked out at 0.0758, the “area with substrate ENVYFQS” value was found to be 0.0855, the “area with substrate ENWYFQS” value was found to be 0.059 and the “area with substrate ENYYFQS” value turned out to be 0.0471.

Consider MGESLFKGPRDYNPISSSICHLTNESDGHTTSLYGIGFGPFIITNKHLFRRNNGTLVVQSLHGVFKVKDTTTLQQHLVDGRDMIIIRMPKDFPPFPQKLKFREPQREERICLVTTNFQTKSMSSDVSDTSCTFPSGDGIFWKHWIQTKDGQCGSPLVSTRDGFIVGIHSASNFTNTNNYFTSVPKNFMELLTNQEAQQWVSGWRLNADSVLWGGHKVFMVKPEEPFQPVKEATQL [M125D], for which the “area with substrate ENAYFQS” value was 0.0632, the “area with substrate ENCYFQS” value turned out to be 0.068, the “area with substrate ENDYFQS” value was determined as 0.0649 and the “area with substrate ENEYFQS” value worked out at 0.0636. Further, the “area with substrate ENFYFQS” value was found to be 0.0504, the “area with substrate ENGYFQS” value amounted to 0.0607, the “area with substrate ENHYFQS” value is 0.051 and the “area with substrate ENIYFQS” value came to 0.0988. In addition, the “area with substrate ENKYFQS” value is 0.0365, the “area with substrate ENMYFQS” value amounted to 0.0837, the “area with substrate ENNYFQS” value came to 0.0757 and the “area with substrate ENPYFQS” value was determined as 0.0728. In addition, the “area with substrate ENQYFQS” value was found to be 0.0575, the “area with substrate ENRYFQS” value came out at 0.0639, the “area with substrate ENSYFQS” value was 0.0605 and the “area with substrate ENTYFQS” value stood at 0.0663. The “area with substrate ENVYFQS” value is 0.0664.

As to MGESLFKGPRDYNPISSSICHLTNESDGHTTSLYGIGFGPFIITNKHLFRRNNGTLVVQSLHGVFKVKDTTTLQQHLVDGRDMIIIRMPKDFPPFPQKLKFREPQREERICLVTTNFQTKQMSSMVSDTSCTFPSGDGIFWKHWIQTKDGQCGSPLVSTRDGFIVGIHSASNFTNTNNYFTSVPKNFMELLTNQEAQQWVSGWRLNADSVLWGGHKVFMVKPEEPFQPVKEATQL [S121Q], the “area with substrate ENAYFQS” value amounted to 0.0702, the “area with substrate ENCYFQS” value is 0.0594, the “area with substrate ENDYFQS” value was found to be 0.0594 and the “area with substrate ENEYFQS” value was 0.057. For the same variant, the “area with substrate ENGYFQS” value turned out to be 0.0604, the “area with substrate ENHYFQS” value turned out to be 0.0466, the “area with substrate ENIYFQS” value came to 0.132 and the “area with substrate ENKYFQS” value came out at 0.0387. The “area with substrate ENNYFQS” value was 0.0459, the “area with substrate ENQYFQS” value stood at 0.0407, the “area with substrate ENRYFQS” value amounted to 0.055 and the “area with substrate ENSYFQS” value came to 0.0605. The “area with substrate ENVYFQS” value was 0.0638, the “area with substrate ENWYFQS” value amounted to 0.0357 and the “area with substrate ENYYFQS” value came out at 0.0607.

Turning to MGESLFKGPRDYNPISSSICHLTNESDGHTTSLYGIGFGPFIITNKHLFRRNNGTLVVQSLHGVFKVKDTTTLQQHLVDGRDMIIIRMPKDFPPFPQKLKFREPQREERICLVTTNFQTKTMSSMVSDTSCTFPSGDGIFWKHWIQTKDGQCGSPLVSTRDGFIVGIHSASNFTNTNNYFTSVPKNFMELLTNQEAQQWVSGWRLNADSVLWGGHKVFMVKPEEPFQPVKEATQL [S121T], the “area with substrate ENAYFQS” value was 0.0577, the “area with substrate ENDYFQS” value came out at 0.0621, the “area with substrate ENFYFQS” value is 0.0794 and the “area with substrate ENGYFQS” value stood at 0.0413. The “area with substrate ENPYFQS” value worked out at 0.0385, the “area with substrate ENRYFQS” value turned out to be 0.059 and the “area with substrate ENVYFQS” value was found to be 0.101.

For the variant MGESLFKGPRDYNPISSSICHLTNESDGHTTSLYGIGFGPFIITNKHLFRRNNGTLVVQSLHGVFKVKDTTTLQQHLVDGRDMIIIRMPKDFPPFPQKLKFREPQREERICLVTTNFQTKSMSKMVSDTSCTFPSGDGIFWKHWIQTKDGQCGSPLVSTRDGFIVGIHSASNFTNTNNYFTSVPKNFMELLTNQEAQQWVSGWRLNADSVLWGGHKVFMVKPEEPFQPVKEATQL [S124K], the “area with substrate ENAYFQS” value was 0.0643, the “area with substrate ENCYFQS” value is 0.061, the “area with substrate ENDYFQS” value worked out at 0.0615 and the “area with substrate ENEYFQS” value is 0.116. Besides, the “area with substrate ENFYFQS” value was found to be 0.0689, the “area with substrate ENGYFQS” value worked out at 0.0643, the “area with substrate ENHYFQS” value is 0.0614 and the “area with substrate ENIYFQS” value stood at 0.11. The “area with substrate ENMYFQS” value was determined as 0.0914, the “area with substrate ENNYFQS” value worked out at 0.0644, the “area with substrate ENQYFQS” value was determined as 0.0605 and the “area with substrate ENRYFQS” value was found to be 0.0583. Also, the “area with substrate ENSYFQS” value turned out to be 0.057, the “area with substrate ENTYFQS” value came out at 0.0691, the “area with substrate ENVYFQS” value was 0.0796 and the “area with substrate ENWYFQS” value is 0.0586. Moreover, the “area with substrate ENYYFQS” value is 0.0644.

In the case of MGESLFKGPRDYNPISSSICHLTNESDGHTTSLYGIGFGPFIITNKHLFRRNNGTLVVQSLHGVFKVKDTTTLQQHLVDGRDMIIIRMPKDFPPFPQKLKFREPQREERICLVTTNFQTKSMSSMVSDTSCDFPSGDGIFWKHWIQTKDGQCGSPLVSTRDGFIVGIHSASNFTNTNNYFTSVPKNFMELLTNQEAQQWVSGWRLNADSVLWGGHKVFMVKPEEPFQPVKEATQL [T132D], the “area with substrate ENAYFQS” value was determined as 0.0548, the “area with substrate ENCYFQS” value is 0.0515, the “area with substrate ENDYFQS” value came out at 0.0542 and the “area with substrate ENEYFQS” value came to 0.0596. Besides, the “area with substrate ENFYFQS” value was found to be 0.0551, the “area with substrate ENGYFQS” value worked out at 0.0519, the “area with substrate ENHYFQS” value is 0.0501 and the “area with substrate ENKYFQS” value turned out to be 0.0614. The “area with substrate ENMYFQS” value is 0.0642, the “area with substrate ENNYFQS” value was 0.0596, the “area with substrate ENPYFQS” value stood at 0.0366 and the “area with substrate ENQYFQS” value was determined as 0.0605. Moreover, the “area with substrate ENRYFQS” value is 0.0555, the “area with substrate ENSYFQS” value was 0.0525, the “area with substrate ENVYFQS” value is 0.0524 and the “area with substrate ENYYFQS” value came out at 0.0506.

Source of the values: the supplement of paper PMC12217912.
